From ChEMBL document CHEMBL1201862, “PubChem BioAssay data set” (2004)
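Grown in 96-well plates, cells were treated for 48 hours with each compound at five concentrations. Insufficient inhibition: endpoint recorded as highest concentration tested. GI50 marks 50% less growth.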 Calls of active or inactive are those of the source. Cut-off read from the data, not from the text of the source: active = GI50 up to about 1.1 µM and inactive = higher.

What follows are compounds tested on NCI-H322M (assay: DTP human tumour cell line panel, 48 h).

| SMILES | GI50 |
| --- | --- |
| COC(=O)/C(=N/O)C(C(=O)C=C(C)C)C(=O)C(=O)Nc1nc2ccc([N+](=O)[O-])cc2s1 (centres undefined) | inactive: 37.3 µM |
| O=C(O)CCS/C(=C\C(SCCC(=O)O)c1ccc(Cl)cc1)c1ccc(Cl)cc1 (centres undefined) | inactive: 48.9 µM |
| O=C(OC1C#CCSCC#C/C=C\1)c1ccc2c(c1)C(=O)c1ccccc1C2=O (centres undefined) | inactive: > 100 µM |
| CCCCCC(=O)Nc1nc(O)c2[nH]cnc2n1 | inactive: > 100 µM |
| CN(C)c1ccc(/C=C(\NC(=O)c2ccccc2)C(=O)Nc2cccc(C(=O)NCCCO)c2)cc1 | inactive: > 100 µM |
| CC(=O)NC1=C(NCC(C)C)C(=O)c2ccccc2C1=O | inactive: > 100 µM |
| CC1(C)CC(O)CC(C)(C)N1O [TEMPOL HYDROXYLAMINE] | inactive: > 100 µM |
| CCOC(=O)c1nc2c(nc1C(=O)OCC)C(=O)c1ccccc1C2=O | inactive: 1.66 µM |
| CC(N)(Cc1c[nH]c2ccccc12)C(=O)O (centres undefined) | inactive: > 100 µM |
| COc1cccc(NC(=O)CSc2nnc(Cc3ccccc3)o2)c1 | inactive: > 100 µM |
| O=[N+]([O-])c1ccc(N/N=C/c2ccc(OCCCCCCCCCCCO)cc2)c([N+](=O)[O-])c1 | inactive: 35 µM |
| O=C(CCc1ccc(O)c(O)c1)NCCc1cc(OCc2ccccc2)cc(OCc2ccccc2)c1 | inactive: 15.5 µM |
| N#CI1OC(=O)c2ccccc21 | inactive: > 100 µM |
| Cc1nc2c(c(N3CCN(C)CC3)n1)Cc1ccccc1-2 | inactive: 66.8 µM |
| O=C(CCc1cc(O)cc(O)c1)NCCc1ccc(O)c(O)c1 | inactive: > 100 µM |
| O=C1c2c(n(Cc3ccccc3)c(=O)n2Cc2ccccc2)C(=O)N1Cc1ccccc1 | inactive: 33.4 µM |
| OCCCN(CCc1ccc(Cl)c(Cl)c1)CCN1CCCC1 | inactive: 53 µM |
| CC1(C)CC(=O)C2=C(C1)C(c1ccccc1Cl)C1C(=O)CC(C)(C)CC1(O)O2 (centres undefined) | inactive: > 100 µM |
| CCOC(=O)/C(=N/Nc1ccc(Cl)cc1)N1C(=S)N(C)N=C(C)C=C1S | inactive: 49.9 µM |
| CCOC(=O)/C1=C(\C)N(c2ccc(C)cc2)C(=O)c2ccccc2C(=O)c2c(OC(C)=O)ccc(OC(C)=O)c21 | inactive: 14.1 µM |
| Nc1ccccc1C(=O)C(Br)C(Br)c1ccc2c(c1)OCO2 (centres undefined) | inactive: 36.6 µM |
| Cn1c2c3c(F)c(F)ccc3nc-2cc2ccccc21 | inactive: 7.1 µM |
| CCOC(=O)CCC(NC(=O)Cc1ccc(Oc2nc3ccccc3nc2-c2cccs2)cc1)C(=O)OCC (centres undefined) | inactive: 19.3 µM |
| Cc1nc2ccccc2c(=O)n1NC(=S)Nc1cccc(Cl)c1 | inactive: > 100 µM |

| SMILES | GI50 |
| --- | --- |
| CC(=O)Nc1c2sscc-2n(C)c1=O [THIOLUTIN] | inactive: 1.55 µM |
| CNC(=S)N/N=C(\C)c1ccc(OC)cc1O | inactive: > 100 µM |
| Cc1[nH]nc(C(=O)N/N=C/c2ccccc2Cl)c1/N=N\N(C)C | inactive: > 66.7 µM |
| COc1ccc2c(c1)C(=O)c1ccc(OC)cc1C2=S | inactive: > 100 µM |
| O=C1C(Cl)N(c2cccc([N+](=O)[O-])c2)C1c1c[nH]c2ccccc12 (centres undefined) | inactive: 18.3 µM |
| COC1=C(N)C(=O)c2nc(C)ccc2C1=O | inactive: 5.48 µM |
| O=[N+]([O-])/C(C(Cl)=C(Cl)Cl)=C(\NCc1ccccc1)Sc1ccccc1 | inactive: 38.5 µM |
| O=C(c1ccc(Cl)cc1)N(C(=S)N1CCN(c2ccccc2)CC1)c1ccccc1 | inactive: > 100 µM |
| CC12CCC(CC1(Cl)Cl)C2 (centres undefined) | inactive: > 100 µM |
| Clc1ccccc1C1SCc2nc3ccccc3n21 (centres undefined) | inactive: 53.6 µM |
| Cc1cc(NC(=O)NC(=O)c2ccccc2N(C)C)ccc1Oc1ncc(Br)cn1 | inactive: 2.22 µM |
| Cc1c(-c2cc(-c3ccccc3)n[nH]c2=O)c2ccccc2n1C | inactive: > 100 µM |
| CC1CNC(NS(=O)(=O)c2cc(C(=O)Nc3ccc(F)cc3)c(Cl)cc2S)=NN1 (centres undefined) | inactive: 54.3 µM |
| O=C1C=CC(=NNc2ccccc2)C=CC1=O | inactive: 13 µM |
| O=C1Nc2ccccc2/C1=N/NC(=S)Nc1cccc(Cl)c1 | inactive: 14.9 µM |
| Nc1ccc(/N=N\c2ccc(-c3ccc(O)cc3)cc2)c2ccc(S(=O)(=O)O)cc12 | inactive: > 100 µM |
| O=[N+]([O-])/C(C(Cl)=C(Cl)Cl)=C(/Nc1ccccc1)SCc1ccccc1 | inactive: 29.4 µM |
| CSc1ccc2c(cc1=O)C(NC(=O)c1ccc(OC(C)=O)cc1)CCc1cc(O)c(O)c(O)c1-2 (centres undefined) | inactive: 22.8 µM |
| COC(=O)C1(C)CCc2c(OC)ccc(OC)c2C1=O (centres undefined) | inactive: > 100 µM |
| COC(=O)/C(=N\NC(C)(C)C)C(C(=O)C(=O)Nc1cc(C)ccc1C)c1nc2ccccc2nc1O (centres undefined) | inactive: > 100 µM |
| O=C1OCC(c2ccc(Cl)cc2)=C1Cl | inactive: 18.4 µM |
| NC(CO)c1ccc(OCc2ccccc2)cc1 (centres undefined) | inactive: > 100 µM |
| [O-][n+]1cn[n+]([O-])c2ccccc21 | inactive: > 100 µM |
| CCOC(=O)CCc1c(C(=O)OCC)[nH]c(/C=C2\NC(=O)C(C)=C2CC)c1C | inactive: 3.08 µM |

| SMILES | GI50 |
| --- | --- |
| N#C/C(=C\c1ccc(CP(=O)(O)O)cc1)C(N)=O | inactive: > 100 µM |
| O=C1OC(C2Cc3ccc4c(c3C2=O)CCC4)c2ccccc21 (centres undefined) | inactive: 69.7 µM |
| CC1=C(c2cc(C(=O)Nc3nccs3)nc(NC#N)n2)Sc2ccccc2N1 | inactive: > 100 µM |
| CCOC(=O)CSc1cc[nH]c(=O)n1 | inactive: > 100 µM |
| C[n+]1c2ccccc2c(NC(CCCNC(=N)N)C(=O)O)c2ccccc21 (centres undefined) | inactive: > 100 µM |
| C/C(=N\NC(=[Se])N(C)C)c1ccccn1 | active: 0.0196 µM |
| Cn1c2c(c3ccccc31)CC(=O)N1CCCC(C1)CC21OCCO1 (centres undefined) | inactive: > 100 µM |
| CNC1=C(C)C(=O)C(C)=C(C(C)(C)CC(=O)n2cc(F)c(=O)[nH]c2=O)C1=O | inactive: 17.2 µM |
| C(=N\C12CC3CC(CC(C3)C1)C2)/C1CCCCC1 | inactive: > 100 µM |
| C[C@@H]1OC(=O)/C(=C\N(C)C)[C@H]2CC(=O)N(CCc3cn(S(=O)(=O)C(F)(F)F)c4ccccc34)C[C@H]12 | inactive: > 100 µM |
| COc1ccc(/C(C)=N/NC(=O)c2ccncc2)c(OC)c1 | inactive: > 10 µM |
| Cc1csc2n(C)c(=O)c3ccccc3[n+]12 | inactive: > 100 µM |
| CCCC(C(=O)Nc1cccc2nc[nH]c12)C(=O)OCC (centres undefined) | inactive: > 100 µM |
| COC(OC)[C@@H](C)[C@H](O)[C@](C)(O)C1OC(C)(C)OC(C(C)C=C(C)C)C1C (some centres undefined) | inactive: > 100 µM |
| CC(=O)N(C(C)=O)c1ncc(-n2nc(-c3ccccc3)cc2-c2ccccc2)c(-c2ccccc2)n1 | inactive: > 10 µM |
| Oc1cc2c(cc1C(c1ccc3c(c1)OCO3)N1CCN(C(c3ccc4c(c3)OCO4)c3cc4c(cc3O)OCO4)CC1)OCO2 (centres undefined) | inactive: 22.2 µM |
| NC(Cc1c2ccccc2cc2ccccc12)C(=O)O (centres undefined) | inactive: 63.5 µM |
| CSc1nc(C)c2c(n1)SCC2 | inactive: > 10 µM |
| Cc1ccc(OCC2OC(n3cnc4c(Br)nc(Br)nc43)CC2Oc2ccc(C)cc2)cc1 (centres undefined) | inactive: 4.08 µM |
| O=C1/C(=C/c2ccc(Cl)cc2)CSC/C1=C\c1ccc(Cl)cc1 | inactive: 11.2 µM |
| COC1C(O)C(n2ncc3c(SC)nc(SC)nc32)OC1C(O)CO (centres undefined) | inactive: > 100 µM |
| N=c1c2ccccc2nc2oc3cc([N+](=O)[O-])ccc3n12 | inactive: > 100 µM |
| O=C(O)CC1C(=O)OC2C3COC(=O)c4cc(O)c(O)c(O)c4-c4c(cc(O)c(O)c4O)C(=O)OC2C(OC(=O)c2cc(O)c(O)c4c2C1C(O)C(=O)O4)C(OC(=O)c1cc(O)c(O)c(O)c1)O3 (centres undefined) | inactive: 69.7 µM |
| CC(=O)OCC1=CC2CCC3C(C)(CCC[C@]3(C)COC(C)=O)C23CC[C@H]1C3 (some centres undefined) | inactive: > 100 µM |

| SMILES | GI50 |
| --- | --- |
| CN(C)Cc1cc(/C=C/C(=O)c2ccc(Cl)c(Cl)c2)cc(CN(C)C)c1O | inactive: 14.1 µM |
| COc1cc(C2SCC(=O)N2c2cc(Cl)c(Cl)cc2Cl)cc(OC)c1OC (centres undefined) | inactive: 36.8 µM |
| CCOC(=O)/C(=C\c1ccc(C#N)cc1)C(C)=O | inactive: 28.4 µM |
| CC(C)/C(Cl)=N\OC(=O)Nc1cccc(Cl)c1 | inactive: 11.9 µM |
| O=c1c2ccccc2nc(-c2ccccc2Cl)n1NCC1(O)OCC(O)C(O)C1O (centres undefined) | inactive: > 100 µM |
| Clc1ccc(C(c2ccc(Cl)cc2)c2cncnc2)cc1 | inactive: 16.6 µM |
| OC(CC(CC(O)(C(F)(F)Cl)C(F)(F)Cl)=NNc1ccccc1)(C(F)(F)Cl)C(F)(F)Cl | inactive: 3.86 µM |
| CC(C)=CCC[C@@H](C)C1=C(O)C(O)C(C)=C2N=C(c3ccccc3)C(=O)OC21 (some centres undefined) | active: 1.08 µM |
| N#Cc1ccccc1NC(=O)C(=O)C1NC(=S)NC1=O (centres undefined) | inactive: > 100 µM |
| Cc1cc(-c2nc3ccccc3s2)ccc1NC(=O)[C@@H](N)CCCCN | inactive: 10.7 µM |
| CC1(C)OC(=O)C(C)(C)OC1=O | inactive: > 100 µM |
| O=C1OC(C(O)C(O)C(O)CO)C(O)C1O (centres undefined) | inactive: > 100 µM |
| Cc1cc(S(=O)(=O)Nc2nc(Nc3ccccc3)n[nH]2)c(SSc2cc(Cl)c(C)cc2S(=O)(=O)Nc2nc(Nc3ccccc3)n[nH]2)cc1Cl | inactive: > 100 µM |
| c1c(N2CCOCC2)s[s+]c1N1CCOCC1 | inactive: > 100 µM |
| O=C(CCc1ccc(O)c(O)c1)NCCc1cc(O)cc(OCc2ccccc2)c1 | inactive: 34.1 µM |
| CCOC(=O)NC(=O)c1cn(CCOCCOC(=O)NCCCCCCNC(=O)OCCOCCn2cc(C(=O)NC(=O)OCC)c(=O)[nH]c2=O)c(=O)[nH]c1=O | inactive: > 100 µM |
| COc1cc(CC(C)NC(C)=O)cc(OC)c1 (centres undefined) | inactive: > 100 µM |
| O=C(O)C12C3C4C1C1C2C3C1(Br)C41OCCO1 (centres undefined) | inactive: > 100 µM |
| Oc1ccc2ccccc2c1/N=N\c1cccc2ccccc12 | inactive: > 100 µM |
| CCOC(=O)C1C(=O)CC(O)(c2ccccc2)C(C(=O)OCC)C1c1ccc(N(C)C)cc1 (centres undefined) | inactive: 67.1 µM |
| COc1cc(Nc2cnc3ccc(C(F)(F)F)cc3n2)cc(OC)c1OC | inactive: > 100 µM |
| CC1OC(O[C@H]2CC[C@]3(C)[C@H]4CC=C5[C@@H]6[C@@H](C)[C@H](C)CC[C@]6(C(=O)OC6OC(CO)C(O)C(O)C6O)CC[C@@]5(C(=O)O)[C@]4(C)CC[C@H]3C2(C)C)C(O)C(O)C1O (some centres undefined) | inactive: > 100 µM |
